Tests used:
Fmr1 KO mice [1] = experiment: Open field testing, baclofen; type: in vivo, mouse; conditions: 30 min test
Protocol: Mice were injected (i.p.) with a dose of R(+)- or S(−)-baclofen one hour before testing. Each mouse was injected with a dose of R or S before testing. The order of treatment (e.g. R followed by S, or S followed by R) was balanced, and the dose was randomly assigned for each drug. There were at least 3 days between tests. Mice used for this experiment had been previously tested approximately one week earlier on the marble-burying test following treatment with R(+)- and S(−)-baclofen.
Mice were placed into the center of a clear Plexiglas (40 cm×40 cm×30 cm) open-field arena and allowed to explore for 30 minutes. Bright, overhead lighting provided approximately 800 lux of illumination inside the arenas. White noise was present at approximately 55 dB inside the arenas. Total distance traveled data during the 30 minute test were collected in two-min intervals by a computer-operated Digiscan optical animal activity system (Accuscan Electronics), but the data for the full 30-min test were analyzed.
The N for the WT littermate controls were: R(+)-baclofen vehicle-treatment N=14; S(−)-baclofen vehicle-treatment N=16.
Open-field activity data were analyzed using a two-step process. First, the data from vehicle-treated WT and Fmr1 KO littermates were analyzed using a one-way ANOVA. […] Statistical analyses were analyzed using SPSS 11.0

Fmr1 KO mice [2] = experiment: Audiogenic seizure assay, baclofen; conditions: 3 mg/kg i.p.; for percentage of Fmr1 KO mice that displayed audiogenic seizures: vehicle about 70%
Fmr1 KO mice [3] = experiment: Marble burying assay, baclofen; conditions: for dose-related alteration in marble burying behavior: i.p. one hour before testing, all doses
[4] = system: person two with autism spectrum disorder
[5] = system: subjects with fragile X syndrome; experiment: Example 5: racemic baclofen in five male subjects with fragile X syndrome, clinician rating; type: in vivo, human; conditions: of 5 male subjects; for number of patients that demonstrated an improvement in behavior: 2.5 mg BID titrated to max about 20 mg TID
Protocol: These subjects had serious behavioral problems that were incompletely controlled with typical psychoactive medications. […] Doses were titrated from about 2.5 mg BID to a maximum of about 20 mg TID, with a maximum duration of about 4 months. […] Subjects were considered “Improved” if the clinician rating was either “much better” or “better”; considered “Not Improved” if the rating was “slightly worse”, “no change” or “slightly better”; and considered “Worsened” if rated “worse” or “much worse”. […] Other areas of improvement included increased class participation and decreased hyperactivity.

[6] = system: person one with autism spectrum disorder; experiment: Example 2: baclofen in person one with autism spectrum disorder; type: in vivo, human
Description: . […] Dramatic improvements in mood and affect such as “looks comfortable, calm and happy” were also noted. Increased alertness, interest and motivation to work on cognitive/educational activities with school instructors were also noted. […]. Daily scores were averaged over the five weeks after initiating baclofen therapy and compared to the average scores for the five weeks immediately preceding initiation of baclofen therapy. […].

[7] = system: person three with autism spectrum disorder; experiment: Example 3: baclofen in person three with autism spectrum disorder; type: in vivo, human; conditions: 5 mg bid
Description: Parents also noted an improvement in sleep patterns, mood and affect. Increased alertness, interest and motivation to work on cognitive/educational activities were noted by school personnel. […] Daily scores were averaged over the five weeks after initiating baclofen therapy and compared to the average scores for the five weeks immediately preceding initiation of baclofen therapy.

76 molecular targets = conditions: 10 μM racemic baclofen, in duplicate; cited from earlier work
[8] = system: subjects with autism spectrum disorder; experiment: Example 4: racemic baclofen in 21 subjects with autism spectrum disorder, clinician rating; type: in vivo, human; conditions: of 21 subjects
Description: The subjects had serious behavioral problems that were not controlled with a variety of medications including antiepileptics (N=14), antipsychotics (N=8) and antidepressants (N=6).

Fmr1 KO mice [9] = experiment: Marble burying assay, dicyclomine; type: in vivo, mouse; conditions: about 60 minutes before the test
Protocol: Fmr1 KO mice were bred on a C57BL/6J genetic background. Only male Fmr1 KO (Fmr1−/y) mice were tested in this study. A standard mouse cage was filled with 10 cm of corn-cob bedding. Small (1.5-2 cm) black marbles were placed equidistant on top of the bedding. A mouse was placed in this cage and allowed to explore and bury the marbles. After about 20 minutes the mouse was removed and the number of marbles buried (a marble was considered ‘buried’ if more than about 50% of the marble under the bedding) was recorded. Mice were treated with dicyclomine about 60 minutes before the test.

Fmr1 knockout mice = experiment: Audiogenic seizure assay, dicyclomine; type: in vivo, mouse; conditions: 40 mg/kg i.p. about 60 minutes prior to the assay
Protocol: FIG. 7 depicts audiogenic seizures in young Fmr1 KO mice with or without dicyclomine (diccyc.) treatment.
The methods employed are described above. Briefly, Fmr1 knockout mice were treated i.p. with either vehicle or dicyclomine about 60 minutes prior to the assay. Mice were exposed to a high intensity sound and then observed for occurrence of seizures. The primary endpoint was frequency of status epilepticus, a sustained tonic seizure most often resulting in respiratory arrest and death.

[10] = 50 mg/kg i.p. 1 hr before testing

What does the source list for `NC[C@H](CC(=O)O)c1ccc(Cl)cc1` [R-baclofen]?
open-field activity (total distance traveled) versus vehicle-treated Fmr1 KO mice (Fmr1 KO mice [1]; 6 mg/kg i.p. 1 hr before testing): significantly less active; open-field activity (total distance traveled) versus vehicle-treated Fmr1 KO mice (Fmr1 KO mice [1]; 6 mg/kg i.p. 1 hr before testing, listed as R(+)-baclofen): less active; open-field activity (total distance traveled) versus vehicle-treated Fmr1 KO mice (Fmr1 KO mice [1]; [10]): less active; induction of audiogenic seizures (Fmr1 KO mice [2]): significantly prevented induction of audiogenic seizures; percentage of Fmr1 KO mice that displayed audiogenic seizures (Fmr1 KO mice [2]; listed as R(+)-baclofen): about 33%; percentage of Fmr1 KO mice that displayed audiogenic seizures (Fmr1 KO mice [2]; listed as R(+)baclofen): 33%; marbles buried versus mice that received 0, 0.3, 1, 3 or 6 mg/kg (Fmr1 KO mice [3]; 10 mg/kg i.p. one hour before testing): significantly less; dose-related alteration in marble burying behavior (Fmr1 KO mice [3]): significant (p<0.005) dose-related alteration

With `NC[C@@H](CC(=O)O)c1ccc(Cl)cc1` [S-baclofen] as the compound, how does the “open-field activity (total distance traveled) versus vehicle-treated Fmr1 KO mice” value (Fmr1 KO mice [1]; [10]) read?
Its value is “significantly less active”.

And the “induction of audiogenic seizures” value (Fmr1 KO mice [2])?
The value was “no more effective than vehicle”.

What about the “marbles buried versus 0.0 mg/kg treated mice” value (Fmr1 KO mice [3]; 1.0 mg/kg i.p. one hour before testing) of the same compound?
Its value is “significantly (p<0.05) more”.

What about the “marbles buried versus mice receiving 0, 0.3, 1, 6 or 30 mg/kg” value (Fmr1 KO mice [3]; 50 mg/kg i.p. one hour before testing) of the same compound?
The value was “significantly less”.

What about the “dose-related alteration in marble burying behavior” value (Fmr1 KO mice [3]) of the same compound?
The value was “significant (p<0.005) dose-related alteration”.

Which “effect of 3 day trial prior to baclofen treatment” value ([4]; 3 days in the hospital) does the source give for `CN(C)CCC=C1c2ccccc2CCc2ccccc21` [amitryptiline] here?
Its value is “no effect”.

Which “number of subjects without obvious improvement” value [5] does the source give for `NCC(CC(=O)O)c1ccc(Cl)cc1` (racemic) [baclofen, β-(Aminomethyl)-4-chlorobenzenepropanoic acid] here?
The value was “Two subjects”.

And the “number of patients that demonstrated an improvement in behavior” value ([5]; listed as Racemic baclofen)?
The value was “Two of the 5”.

What about the “number of patients that demonstrated an improvement in behavior” value ([5]; listed as racemic baclofen) of the same compound?
The value was “Two of five”.

And the “number of subjects that worsened” value ([5]; excessive sleepiness, increased irritability, screaming and swearing)?
Its value is “One subject”.

And the “episodes of scratching, hitting and kicking others” value ([6]; 5 mg bid, average of five weeks after initiation (mean±SE), before 17+2)?
Its value is 6+1 episodes a day.

What about the “episodes of hand biting or hitting of the head” value ([6]; 5 mg bid, average of five weeks after initiation, before 15+2) of the same compound?
The value was 6+1 episodes a day.

And the “time benefits have been maintained” value ([6]; stable dosing at 5 mg bid)?
Its value is 5 weeks.

And the “episodes of startle tremor” value ([7]; average of five weeks after initiation (mean±SE), before 66+24)?
The value was 16+5 episodes a day.

And the “incidence of spontaneous attempts to communicate” value ([7]; average of five weeks after initiation, before 11+1)?
The value was 21+2 episodes a day.

What about the “binding to the other 75 molecular targets” value (76 molecular targets) of the same compound?
The value was “less than 50%”.

What about the “number of subjects that worsened” value [8] of the same compound?
The value was 2.

What about the “number of subjects who stopped with adverse side effects considered related to initiation of baclofen” value ([8]; drowsiness in one, hyperactivity in the other) of the same compound?
Its value is 2.

And the “time until abdominal pain appeared resolved and GI motility became functional” value ([4]; 5 mg tid)?
Its value is ≤ 24 h.

What about the “cognitive and behavioral domains” value ([4]; 5 mg tid, over the next several days and weeks) of the same compound?
The value was “improvements were noted”.

What about the “time until beneficial effects began to wane” value ([4]; about 5 mg tid) of the same compound?
The value was “about 3 weeks”.

And the “duration over which efficacy has been observed” value ([4]; about 10 mg bid, single dose omitted when effects wane)?
Its value is “over 11 weeks”.

What about the “effect of increasing the dose after effects waned” value ([4]; about 10 mg tid) of the same compound?
The value was “did not produce the beneficial effects”.

What about the side effects ([4]; single dose of about 15 mg) of the same compound?
Its side effects is “sedation”.

What about the marble burying behavior (Fmr1 KO mice [3]; 6 mg/kg, 12 mg/kg, fragile X knockout mice) of the same compound?
Its marble burying behavior is “reduced marble burying behavior in a dose dependent manner”.

With `CCN(CC)CCOC(=O)C1(C2CCCCC2)CCCCC1` [dicyclomine] as the compound, how does the marble burying behavior (Fmr1 KO mice [9]) read?
The marble burying behavior was “reduced marble burying behavior in a dose dependent manner”.

And the “induction of audiogenic seizures” value (Fmr1 knockout mice)?
Its value is “significantly prevented induction of audiogenic seizures”.

— US8273715B2, “Methods of treating fragile X syndrome” (Seaside Therapeutics, Inc., priority 2006, dated 2012)
